From PubChem BioAssay AID488969 (Vanderbilt High Throughput Screening Facility, 2010)
The full ranking holds about 110,000 compounds; the median of “z-score” is about -0.1, and the highest 2% start at about 2. The list shows a part of the results. The source made the active and inactive calls.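 How the source made its calls: active means z-score in the third read window above 3 or below -3; inactive means the rest.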

Molecular target: Metabotropic glutamate receptor 8 (Rattus norvegicus) (UniProt P70579)
Chain of UniProt P70579 (P70579 whole entry, looked up): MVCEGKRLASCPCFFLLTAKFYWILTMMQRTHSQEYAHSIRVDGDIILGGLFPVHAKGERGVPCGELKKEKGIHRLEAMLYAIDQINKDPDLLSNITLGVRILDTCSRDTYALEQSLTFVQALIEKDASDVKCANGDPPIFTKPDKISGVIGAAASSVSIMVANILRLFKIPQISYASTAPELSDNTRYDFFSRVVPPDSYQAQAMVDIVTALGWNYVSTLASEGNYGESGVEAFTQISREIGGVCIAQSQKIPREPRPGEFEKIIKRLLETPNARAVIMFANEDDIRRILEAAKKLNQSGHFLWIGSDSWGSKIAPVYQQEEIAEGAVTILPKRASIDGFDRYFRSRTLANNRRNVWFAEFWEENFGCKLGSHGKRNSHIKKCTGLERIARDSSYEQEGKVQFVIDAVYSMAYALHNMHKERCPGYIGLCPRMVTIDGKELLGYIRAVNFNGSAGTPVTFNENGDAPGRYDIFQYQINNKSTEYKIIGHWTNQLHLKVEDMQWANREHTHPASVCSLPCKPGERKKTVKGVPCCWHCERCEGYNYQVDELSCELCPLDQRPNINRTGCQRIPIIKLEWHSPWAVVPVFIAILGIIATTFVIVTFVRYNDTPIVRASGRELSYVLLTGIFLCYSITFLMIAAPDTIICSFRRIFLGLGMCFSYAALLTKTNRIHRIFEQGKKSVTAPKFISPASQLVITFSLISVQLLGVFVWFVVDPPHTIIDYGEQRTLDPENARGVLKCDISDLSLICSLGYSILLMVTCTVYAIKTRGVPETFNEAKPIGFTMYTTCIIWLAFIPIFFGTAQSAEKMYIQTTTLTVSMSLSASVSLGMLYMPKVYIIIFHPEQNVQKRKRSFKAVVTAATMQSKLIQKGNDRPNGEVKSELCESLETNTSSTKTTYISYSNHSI
Experiment: mGluR8 Gi/Go-coupled signaling modulation – cell-based, rat, thallium flux, HTS, primary screen (AID 488969)
Conditions: HEK293 rat mGluR8, GIRK (G protein-gated inwardly rectifying potassium channel) thallium flux, FluoZin2; at 10 µM; stronger effect = higher value; submaximal glutamate (EC20) added with thallium

Compared with `CC(=O)Nc1ccc(N=Cc2ccc[nH]2)cc1`, `CC(=O)Nc1ccc(NS(=O)(=O)C(F)(F)F)cc1` is higher in z-score: 0.195 for the first, 0.785 for the second.

First: CSc1nnc(C)c(/C=C/Nc2ccc(C)cc2)n1
Second: COc1ccc(NCc2nnc(SCC(=O)Nc3cc(C)cc(C)c3)o2)cc1
The z-score of the first is lower: -0.226 for the first, 0.0362 for the second.

Compared with `O=C(Nc1ccc(SC(F)F)cc1)c1ccc2nccnc2c1`, `CCOc1ccccc1C(=O)N/N=C/c1cccc2cccnc12` is lower in z-score: -0.51 for the first, -0.542 for the second.

First: CCN1CCCC(NC(=O)c2scc3c2CCCC3)C1 (stereo unspecified)
Second: Cc1cc(C)c(S(=O)(=O)N2CCCC(C(=O)NCCC3=CCCCC3)C2)c(C)c1 (stereo unspecified)
The z-score of the first is lower: -0.204 for the first, -0.195 for the second.

Going from `O=C(c1ccc(Cl)cc1)c1oc2ccccc2c1CS(=O)(=O)c1ccccc1` to `O=C(c1ccccc1)c1ccc(CN2C(=O)c3ccccc3C2=O)o1`, the z-score falls from -0.000363 to -0.422.

First: CCN(CC)C(=O)Cn1cnc2c1c(=O)n(C)c(=O)n2C
Second: COCCOc1nc2c(c(=O)n(C)c(=O)n2C)n1Cc1cccc(OC)c1
The z-score of the first is lower: -0.242 for the first, -0.174 for the second.

Going from `COc1ccc(N(CC(=O)Nc2nc3ccc(C)cc3s2)S(=O)(=O)c2c(C)nn(C)c2C)cc1` to `CCOC(=O)c1ccc(NC(=O)Nc2c(C)nn(C)c2C)cc1`, the z-score falls from 2.44 to -0.0137.

First: CN(C(=O)CCN1C(=O)C(C)(C)Nc2ccccc21)c1ccccc1
Second: CCN(CC)C(=O)CSc1nc2ccccc2c(=O)n1-c1cccc(OC)c1
The z-score of the first is higher: 0.0324 for the first, -2.06 for the second.

First: CCOC(=O)NC1(NC2CCCCC2)Oc2ccccc2O1
Second: O=C(Cn1nc(-c2ccccc2)nc1-c1ccccc1)OC1CCCCC1
The z-score of the first is higher: 0.41 for the first, -0.021 for the second.

First: CCOC(=O)CSc1nnc(Cc2cc(=O)[nH]c(=O)[nH]2)n1-c1cccc(OC)c1
Second: CCOC(=O)Cn1c(CN2CCN(c3cccc(Cl)c3)CC2)nc2c1c(=O)[nH]c(=O)n2C
The z-score of the first is lower: -0.125 for the first, 0.0733 for the second.

Going from `CC1(C)[N+]([O-])=C2C(=[N+]([O-])C1(C)C)c1ccccc1/C2=N\O` to `CC(C)C(C(=O)C=[N+]=[N-])N1C(=O)c2ccccc2C1=O` (stereo unspecified), the z-score rises from 0.0279 to 0.097.

Going from `CC1(C)CC(=O)C2=C(C1)OC(N)=C(C#N)C21C(=O)N(CN2CCOCC2)c2ccccc21` (stereo unspecified) to `CC1CCN(c2ccccc2NC(=O)c2ccc(N3CCOCC3)c([N+](=O)[O-])c2)CC1`, the z-score falls from -0.00502 to -0.0873.

Going from `Cc1cc(OCC(=O)N[C@@H](Cc2ccccc2)c2nc3ccccc3[nH]2)ccc1Cl` to `Cc1ccc(C(=O)NCCc2nc3ccccc3[nH]2)cc1[N+](=O)[O-]`, the z-score rises from -0.0561 to 0.107.

Going from `CN(C)/C=C(\C#N)C(=O)Nc1ccc(F)cc1` to `Cc1cc(=O)oc2cc(OCC(=O)Nc3cccc(S(=O)(=O)N(C)C)c3)ccc12`, the z-score falls from 0.23 to -0.0464.

Compared with `Brc1ccccc1C1=Nn2c(nnc2-c2ccccc2)SC1`, `CCOc1ccccc1N/C=C(\C#N)c1nc2ccccc2n1C` is higher in z-score: -1.33 for the first, -0.0997 for the second.

First: N#Cc1c(N)c(C(=O)c2ccccc2)n2c1CCC2
Second: CC(C)N1C(=O)CCC1C(=O)N1CCCc2ccccc21 (stereo unspecified)
The z-score of the first is lower: -0.0593 for the first, 0.347 for the second.

Going from `Oc1c(C(c2ccco2)N2CCOCC2)sc2ncnn12` (stereo unspecified) to `CC(C)(C)c1nc(CN2CCOCC2)ccc1O`, the z-score rises from -0.0272 to 0.965.

Compared with `Cc1ccccc1CN(c1ccc(C(=O)NCCC2=CCCCC2)cc1)S(C)(=O)=O`, `COc1ccccc1CNC(=O)c1oc2ccc(S(=O)(=O)N3CCCC3)cc2c1C` is lower in z-score: 0.0784 for the first, -0.521 for the second.

Compared with `CNC(=O)c1c(NC(NC(=O)c2ccco2)C(=O)c2ccc(Cl)cc2)sc2c1CCCC2` (stereo unspecified), `Cc1ccc(NC(=O)CS(=O)CC(=O)NC(C)CCc2ccco2)cc1Cl` (stereo unspecified) is higher in z-score: -0.475 for the first, -0.455 for the second.

Going from `COc1cc2c(cc1OC)C(C(=O)NCc1ccco1)C(c1cccs1)N(C)C2=O` (stereo unspecified) to `Cc1cc(C)c(C(=O)CC2(O)C(=O)Nc3ccccc32)cc1C` (stereo unspecified), the z-score falls from 0.637 to -0.116.

Going from `CCOc1ccc(-c2c[n+](=O)c3c(n2[O-])CCCC3)c(OCC)c1` to `Clc1cccc(OCCN2CCN(CCOc3cccc(Cl)c3)CC2)c1`, the z-score rises from -0.712 to 0.21.

First: O=C(Oc1ccc(=O)n(-c2ccccc2)n1)c1ccc(Cl)cc1
Second: COc1ccc(/C(N)=N/OC(=O)CSc2ccccc2)cc1
The z-score of the first is lower: -1.58 for the first, -0.955 for the second.

Going from `Cc1cccc(C)c1NC(=O)C(c1ccccc1)N1CCC2(CC1)OCCO2` (stereo unspecified) to `O=C(CSCc1cnn(-c2ccccc2)c1-n1cccc1)NCCN1CCOCC1`, the z-score falls from -0.142 to -0.215.

Going from `COCCCNC(=O)Nc1ccc(Br)cc1Cl` to `CCOC(=O)c1oc2cccc(O)c2c1C`, the z-score falls from 0.0298 to -0.427.

`O=C(Nc1ccccc1)c1n[nH]c(Cn2cncn2)n1` and `O=C(CC(=O)N1CCN(c2ccccn2)CC1)Nc1ccc2nc3n(c(=O)c2c1)CCCCC3` are the same in z-score: -0.138 for the first, -0.138 for the second.

Going from `NS(=O)(=O)c1cccnc1Nc1ccc(Cl)c(Cl)c1` to `Cc1ccc(S(=O)(=O)N(C)Cc2nc(-c3ccccn3)no2)cc1`, the z-score falls from -0.00633 to -0.201.

Compared with `O=C1/C(=C/c2ccc(F)c(F)c2)CSc2sccc21`, `CCc1nnc(NC(=O)CCN2C(=O)CCC2=O)s1` is higher in z-score: -0.895 for the first, 0.0672 for the second.

`OC1(c2cccnc2)CCN(Cc2nnnn2C2CCCCC2)CC1` was tested, and the z-score was -0.566.

For `CCOC(=O)Cn1c(=O)oc2cc(S(=O)(=O)NCCCc3ccccc3)ccc21`, the z-score was active: 3.36.
